From publication PMC4336329 (PLoS ONE, 2015)
The whole screen tested about 310,000 compounds, of which about 14,000 (4.5%) showed an effect of 50% or more. Effects have a minus sign here. The list shows a part of the results.

Target: human ether-à-go-go-related gene (hERG) potassium channel (human, UniProt Q12809)
Assay: primary screen, population patch clamp on CHO cells stably expressing hERG
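Also: peak tail current of the secondary pulse compared with the same well before compound.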

Sequence of human ether-à-go-go-related gene (hERG) potassium channel (Q12809 whole entry, looked up): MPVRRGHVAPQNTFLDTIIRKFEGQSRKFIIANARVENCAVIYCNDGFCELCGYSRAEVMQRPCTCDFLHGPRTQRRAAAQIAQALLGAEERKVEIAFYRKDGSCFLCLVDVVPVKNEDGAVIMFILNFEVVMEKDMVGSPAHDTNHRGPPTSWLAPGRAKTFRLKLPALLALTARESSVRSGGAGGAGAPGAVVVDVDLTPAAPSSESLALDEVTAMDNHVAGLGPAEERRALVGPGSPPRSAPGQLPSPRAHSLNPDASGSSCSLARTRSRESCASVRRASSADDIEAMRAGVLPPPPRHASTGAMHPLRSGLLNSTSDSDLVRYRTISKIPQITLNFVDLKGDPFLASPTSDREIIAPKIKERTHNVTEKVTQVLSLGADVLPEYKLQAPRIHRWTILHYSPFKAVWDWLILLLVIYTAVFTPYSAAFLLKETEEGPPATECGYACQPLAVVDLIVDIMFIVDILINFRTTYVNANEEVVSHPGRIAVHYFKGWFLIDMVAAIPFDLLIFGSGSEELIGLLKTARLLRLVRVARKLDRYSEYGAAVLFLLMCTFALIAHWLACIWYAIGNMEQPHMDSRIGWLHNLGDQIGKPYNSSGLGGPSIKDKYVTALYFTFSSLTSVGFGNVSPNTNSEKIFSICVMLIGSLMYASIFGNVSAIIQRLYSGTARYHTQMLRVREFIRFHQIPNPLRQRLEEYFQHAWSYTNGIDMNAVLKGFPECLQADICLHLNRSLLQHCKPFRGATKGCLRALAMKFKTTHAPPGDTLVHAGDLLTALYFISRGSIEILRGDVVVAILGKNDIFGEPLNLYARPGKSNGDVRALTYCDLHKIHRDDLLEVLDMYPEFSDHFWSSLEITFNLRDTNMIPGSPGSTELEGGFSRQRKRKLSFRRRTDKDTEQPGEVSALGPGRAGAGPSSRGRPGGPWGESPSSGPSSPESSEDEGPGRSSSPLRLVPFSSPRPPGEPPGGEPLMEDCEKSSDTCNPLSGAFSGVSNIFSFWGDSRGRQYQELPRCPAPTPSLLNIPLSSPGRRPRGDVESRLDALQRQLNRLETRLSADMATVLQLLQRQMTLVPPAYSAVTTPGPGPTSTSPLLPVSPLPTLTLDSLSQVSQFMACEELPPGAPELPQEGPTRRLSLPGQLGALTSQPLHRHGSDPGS

First: COc1cc(CNC(=O)C2CCCC2)cc(OC)c1OC
Second: CCOC(=O)N1CCC(N2Cc3cccc(C(=O)Nc4ccc(OC)c(OC)c4)c3C2=O)CC1
The “hERG current change (%, negative = inhibition) at 10uM” value of the first is higher: 18.6% for the first, -9.58% for the second.

Compared with `CC(C)CNC(=O)C1CCCN(S(=O)(=O)c2ccc(-n3cnnn3)cc2)C1` (centres unmarked), `O=C(Nc1ccc(S(=O)(=O)N2CCCC2)cc1)C1COc2ccccc2O1` (centres unmarked) is higher in “hERG current change (%, negative = inhibition) at 10uM” value: -0.697% for the first, 13% for the second.

Going from `CNC(=O)c1cc2cc(OC)ccc2oc1=O` to `CCN(CC)C(=O)COc1ccc2c(-c3ccc(OC)cc3)cc(=O)oc2c1`, the “hERG current change (%, negative = inhibition) at 10uM” value rises from -5.67% to -5.33%.

First: COc1ccc(Cn2c(=O)[nH]c3cc(C(=O)NCCCN4CCCC4)ccc3c2=O)cc1
Second: O=C(NCCCN1CCOCC1)c1ccc2c(c1)N(Cc1c(F)cccc1Cl)C(=O)c1ccccc1S2
The “hERG current change (%, negative = inhibition) at 10uM” value of the first is higher: 0.46% for the first, -44.7% for the second.

First: Cc1ccnc(SCCn2c(N3CCC(C)CC3)nc3c2c(=O)n(C)c(=O)n3C)n1
Second: CC1CCN(c2c(NCc3ccc(C(=O)NCCc4ccc(Cl)cc4)cc3)c(=O)c2=O)CC1
The “hERG current change (%, negative = inhibition) at 10uM” value of the first is lower: -8.64% for the first, -5.91% for the second.

First: COC(=O)CN(C)C(=O)CC1C(=O)NCCN1CC(C)(C)C (centres unmarked)
Second: CCOC(=O)C1CCN(C(=O)c2ccc(OCC(=O)N3CCOCC3)c(OC)c2)CC1
The “hERG current change (%, negative = inhibition) at 10uM” value of the first is higher: 22.8% for the first, 11.7% for the second.

Compared with `CC(=O)c1nn(-c2ccc(Br)cc2)cc1C(=O)c1ccccc1`, `COC(=O)c1ccccc1NC(=O)CSc1ccccc1` is lower in “hERG current change (%, negative = inhibition) at 10uM” value: 17% for the first, -13.4% for the second.

First: O=C(Nc1ccc(-c2csc(-c3ccccc3)n2)cc1)c1ccccc1Cl
Second: O=C(NCCNc1ccc2ccccc2c1)c1cccn2c(=O)c3sccc3nc12
The “hERG current change (%, negative = inhibition) at 10uM” value of the first is higher: 12.3% for the first, -6.94% for the second.

Going from `COCCn1c(SCc2cccc(F)c2)nc2cc(C(=O)OC)ccc2c1=O` to `CCn1c(SCC(=O)NCc2ccco2)nc2ccccc2c1=O`, the “hERG current change (%, negative = inhibition) at 10uM” value falls from 12% to -34.4%.

First: O=C(COC(=O)Cc1ccccc1F)NCCNC(=O)COC(=O)Cc1ccccc1F
Second: O=C(CCCCCn1nnc2ccccc2c1=O)Nc1ccccc1F
The “hERG current change (%, negative = inhibition) at 10uM” value of the first is lower: -5% for the first, 6.92% for the second.

First: Nc1ccc(OC(=O)Nc2ccc(O)cc2)cc1
Second: COc1cccc(C(=O)Nc2ccc(C)cc2)c1
The “hERG current change (%, negative = inhibition) at 10uM” value of the first is higher: 9.66% for the first, -4.91% for the second.

Compared with `CCC(Oc1ccccc1)C(=O)Nc1nnc(S(=O)(=O)Nc2ccccc2)s1` (centres unmarked), `CC(C)(CN1CCC(Cc2ccccc2)CC1)NS(=O)(=O)c1ccccc1.O=C(O)C(=O)O` is lower in “hERG current change (%, negative = inhibition) at 10uM” value: 11.3% for the first, -60.8% for the second.

First: O=C(NC12CC3CC(CC(C3)C1)C2)N1CCN(c2nc(-c3ccccc3)cs2)CC1
Second: Cc1c(Br)c([N+](=O)[O-])nn1CCCC(=O)N1CCN(c2ccccc2)CC1
The “hERG current change (%, negative = inhibition) at 10uM” value of the first is higher: 8.01% for the first, -32.4% for the second.

First: CC(C)OC(=O)CSc1nc(C(C)C)nc2ccccc12
Second: Cc1cccc(Cn2c(C(=O)OC(C)C)cc3c2ccn3C)c1
The “hERG current change (%, negative = inhibition) at 10uM” value of the first is higher: 14.1% for the first, 6.07% for the second.

Going from `O=C(Nc1ccccc1)C1=C[C@@H](C2CC2)C[C@@H](OCCCCO)O1` to `C[C@H]1CN=C(Nc2ccccc2)N1CC1CCCCCC1`, the “hERG current change (%, negative = inhibition) at 10uM” value falls from -0.335% to -24.5%.

First: O=C1CC(c2cccc([N+](=O)[O-])c2)c2cc3c(cc2N1)CCC3 (centres unmarked)
Second: Cc1c(C(=O)c2ccc([N+](=O)[O-])cc2)c(=O)n(C)c(=O)n1C
The “hERG current change (%, negative = inhibition) at 10uM” value of the first is higher: 4.53% for the first, -26% for the second.

Going from `COC(=O)c1cc(S(=O)(=O)N2CCN(c3ccccc3OC)CC2)cn1C` to `Cn1c(=O)c(=O)n(C)c2cc(S(=O)(=O)N3CCOCC3)ccc21`, the “hERG current change (%, negative = inhibition) at 10uM” value falls from 11.8% to -4.27%.

Going from `O=C1CN2NC(=S)N(c3ccc(Cl)cc3)C2=CN1c1ccc(Cl)cc1` to `O=c1[nH][nH]c(-c2ccccc2)c1C=Nc1ccc(Cl)cc1`, the “hERG current change (%, negative = inhibition) at 10uM” value falls from 20.5% to -23%.

Compared with `Cc1cc(C)cc(NC(=O)CCCn2nc(C)c3c(C)n(-c4ccccc4)nc3c2=O)c1`, `Cc1ccc(C)c(Cn2c3ccccc3c3cnn(CC(=O)NCCCN4CCOCC4)c(=O)c32)c1` is lower in “hERG current change (%, negative = inhibition) at 10uM” value: -4.07% for the first, -49.7% for the second.

Compared with `Cc1cccc2cc(CN(Cc3ccccc3)C(=O)c3cccc(F)c3)c(Cl)nc12`, `COc1ccc(CC(=O)OCc2nnc(-c3ccccc3)o2)cc1` is higher in “hERG current change (%, negative = inhibition) at 10uM” value: -2.31% for the first, 16% for the second.

Going from `Cc1onc(NC(=O)NC(=O)c2c(Cl)cccc2Cl)c1Br` to `Cn1c(NC(=O)c2ccccc2Br)cc(=O)n(C)c1=O`, the “hERG current change (%, negative = inhibition) at 10uM” value rises from -36.4% to 5.9%.

First: COc1ccccc1NC(=O)COc1ccc(/C=N/n2cnnc2)cc1OC
Second: CC(C)(C)OC(=O)n1cc(/C=N/NC(=O)c2ccco2)c2ccccc21
The “hERG current change (%, negative = inhibition) at 10uM” value of the first is lower: 8.86% for the first, 13.7% for the second.

Going from `CC(=O)Nc1ccc(S(=O)(=O)NCC(=O)NCCc2ccc(S(N)(=O)=O)cc2)cc1` to `CN(C)S(=O)(=O)c1ccc(C(=O)NCc2ccc3[nH]c4c(c3c2)CCCC4)cc1`, the “hERG current change (%, negative = inhibition) at 10uM” value falls from 27% to 1.15%.

First: CCn1c(CCNC(=O)c2cccs2)nnc1SCC(=O)c1ccc(OC)cc1
Second: O=C(CCn1nnc2ccccc21)OCC(=O)c1ccc(F)cc1
The “hERG current change (%, negative = inhibition) at 10uM” value of the first is higher: 7.05% for the first, 1.38% for the second.

Going from `Cc1cc(O)c(C(=O)c2ccccc2C(=O)O)cc1C` to `Cn1c(=O)n(C)c2cc(NC(=O)c3ccccc3[N+](=O)[O-])c(Br)cc21`, the “hERG current change (%, negative = inhibition) at 10uM” value falls from -3.51% to -26%.

First: O=C(/C=C/c1ccc(Cl)cc1)c1cccnc1
Second: O=C(NCc1cccnc1)c1ccc(Br)o1
The “hERG current change (%, negative = inhibition) at 10uM” value of the first is lower: -21.5% for the first, 24.2% for the second.

Compared with `NP(=O)(OCCCCc1ccccc1)Oc1ccccc1Cl` (centres unmarked), `OC(CCNCCc1c[nH]c2ccccc12)C(F)(F)Cl` (centres unmarked) is higher in “hERG current change (%, negative = inhibition) at 10uM” value: -11.2% for the first, -6.51% for the second.

Compared with `Cc1c(C(=O)OCC(=O)NC2CCCCC2)oc2ccccc12`, `CCC(C)(C(=O)NC1CCCC1)N(Cc1cccs1)C(=O)Cc1cccs1` (centres unmarked) is lower in “hERG current change (%, negative = inhibition) at 10uM” value: -7.61% for the first, -22.4% for the second.

Compared with `Cc1cc(C)n2c(SCCN3C(=O)c4ccccc4C3=O)nnc2n1`, `Cc1nc(C)c(-c2ccc(SCC(=O)Nc3ccc(F)cc3F)nn2)s1` is lower in “hERG current change (%, negative = inhibition) at 10uM” value: 1.27% for the first, -6.6% for the second.

First: O=[N+]([O-])c1ccc(OCn2cncn2)cc1
Second: Cc1ccn(CC(=O)N/N=C/c2cc([N+](=O)[O-])ccc2O)n1
The “hERG current change (%, negative = inhibition) at 10uM” value of the first is higher: 10.9% for the first, 6.53% for the second.

Compared with `Cc1sc(N)nc1-c1cccs1`, `Cc1cc2nc(N)sc2cc1C` is lower in “hERG current change (%, negative = inhibition) at 10uM” value: 20.2% for the first, 7.23% for the second.

Compared with `O=C(c1ccc(Cl)cc1)N1CCC(C(=O)N2CCN(c3ncccn3)CC2)CC1`, `CN1CCN(C(=S)c2ccc(Cl)cc2)CC1` is higher in “hERG current change (%, negative = inhibition) at 10uM” value: -56.6% for the first, 3.39% for the second.

Compared with `CNC(C)C#Cc1ccc2c(=O)c3ccccc3oc2c1` (centres unmarked), `CC(C)c1ccc2oc(-c3ccc(N)cc3)nc2c1` is higher in “hERG current change (%, negative = inhibition) at 10uM” value: 1.2% for the first, 17.9% for the second.

Going from `CCN(CC)C(=S)SCC(=O)Nc1ncc2c(n1)CCCC2=O` to `Cc1csc(NC(=O)CSc2nccn2Cc2ccco2)n1`, the “hERG current change (%, negative = inhibition) at 10uM” value rises from -8.43% to 4.55%.

Going from `CCC(CC)C(=O)c1c[nH]c(C(=O)NCCCn2ccnc2)c1` to `Cc1ccc(NC(=O)c2ccc3c(c2)N(CC(=O)NC(C)C)C(=O)C(C)(C)O3)cc1`, the “hERG current change (%, negative = inhibition) at 10uM” value rises from 2.51% to 18.2%.

First: C/C=C/c1ccc(OC)c(OC(C)=O)c1
Second: Cc1ccc(/C=C/C(=O)Nc2nccs2)o1
The “hERG current change (%, negative = inhibition) at 10uM” value of the first is higher: 6.06% for the first, -2.87% for the second.

First: Brc1ccccc1-n1nnc(-c2nccs2)n1
Second: Fc1ccccc1Cn1nnc(-c2ccc3c(c2)OCO3)n1
The “hERG current change (%, negative = inhibition) at 10uM” value of the first is higher: 2.65% for the first, -1.33% for the second.

Going from `Cn1c(=O)oc2cc(S(=O)(=O)N3CCOCC3)ccc21` to `O=C(CCSc1ccc(Cl)cc1)N1CCOCC1`, the “hERG current change (%, negative = inhibition) at 10uM” value falls from 4.59% to 0.93%.

Compared with `Cc1oc(-c2cc3c(cc2Cl)OCO3)nc1CN1CCCC(C(=O)N2CCOCC2)C1` (centres unmarked), `Cc1ccc2nccc(C(=O)N3CCCC(N4CCN(c5ccc(F)cc5)CC4)C3)c2c1` (centres unmarked) is lower in “hERG current change (%, negative = inhibition) at 10uM” value: -24.7% for the first, -48.5% for the second.

Compared with `O=C(NCc1ccco1)c1ccc(OCC2CCCO2)cc1` (centres unmarked), `O=C(NCc1ccco1)Nc1ccc2snnc2c1` is higher in “hERG current change (%, negative = inhibition) at 10uM” value: -23.2% for the first, 2.51% for the second.

Compared with `COc1ccc([C@H]2Oc3cc(O)cc(O)c3C(=O)C2[C@@H]2C(=O)c3c(O)cc(O)cc3O[C@@H]2c2ccc(OC)cc2)cc1` (some centres unmarked), `COc1ccc(N2CCN(C(=O)c3oc4ccccc4c3NC(=O)CCc3cc(OC)no3)CC2)cc1` is lower in “hERG current change (%, negative = inhibition) at 10uM” value: 16.9% for the first, -10.4% for the second.

Compared with `CC(=O)NC(c1cc(Cl)c2cccnc2c1O)C(C)C` (centres unmarked), `NNC(=O)c1ccc2[nH]c3c(c2c1)CCCC3` is higher in “hERG current change (%, negative = inhibition) at 10uM” value: -17.2% for the first, 5.31% for the second.

First: O=C(Cn1c(=O)c2cccn2c2ccc(F)cc21)N1CCN(c2ccc(F)cc2)CC1
Second: CC(=O)N1CCN(c2ccc(NC(=S)NC(=O)COc3ccc(C(C)(C)C)cc3)cc2)CC1
The “hERG current change (%, negative = inhibition) at 10uM” value of the first is higher: 9.04% for the first, 0.854% for the second.

First: Cc1nc2ncnn2c(C)c1CCC(=O)N1CCC2(CC1)OCCO2
Second: Cc1ccc2c(c1)C1CN(C)CCC1N2C(=O)c1ccccc1NS(=O)(=O)c1cccc(C(F)(F)F)c1.Cl (centres unmarked)
The “hERG current change (%, negative = inhibition) at 10uM” value of the first is higher: 4.5% for the first, -48.5% for the second.

With `O=C(NNC1OC(CO)C(O)C(O)C1O)c1cccc(Br)c1` (centres unmarked) the “hERG current change (%, negative = inhibition) at 10uM” value was 12.9%.
